Measurements from the supplement of paper PMC4967469.

Columns and labels:
Assay in all cases: Viability of human cancer cell lines after 72 h of drug (GDSC screen)
[1] = compound: COc1ccc(COc2ccc(Cc3cnc(N)nc3N)cc2OC)cc1 [GW-2580]; details: top dose 20 µM; top dose inferred
Procedure: (§1)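 Human cancer cell lines in 384-well plates, medium with 10% serum, drug for 72 h over a 256-fold dose range (nine 2-fold or five 4-fold steps up to the top dose). Adherent lines were fixed and stained with the nucleic acid dye Syto60, suspension lines read with resazurin; signal relative to control wells, capped at 0 and 100%. One two-parameter sigmoid per drug and line, fitted in a mixed model over all curves with the slope shared within a line.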

[2] = compound: CC(C)N(CCCNC(=O)Nc1ccc(C(C)(C)C)cc1)C[C@H]1O[C@@H](n2cc(Br)c3c(N)ncnc32)[C@H](O)[C@@H]1O [SGC0946]; details: top dose 0.5 µM; top dose inferred
Procedure: as §1

[3] = compound: Nc1cccc2c1CN(C1CCC(=O)NC1=O)C2=O [Lenalidomide]; details: top dose 5 µM; top dose inferred
Procedure: as §1

[4] = compound: CCC/C=C/C=C/C(=O)O[C@H]1/C(=C/C(=O)OC)C[C@H]2C[C@H]([C@@H](C)O)OC(=O)C[C@H](O)C[C@@H]3C[C@H](OC(C)=O)C(C)(C)[C@](O)(C[C@@H]4C/C(=C/C(=O)OC)C[C@H](/C=C/C(C)(C)[C@]1(O)O2)O4)O3 [Bryostatin 1]; details: top dose 0.008 µM; top dose inferred
Procedure: as §1

Row | Cell Line | AUC [1] | pIC50 [1] | AUC [2] | pIC50 [2] | AUC [3] | pIC50 [3] | AUC [4] | pIC50 [4]
1 | PCI-30 (head and neck, adherent) | 0.983 | < 4.70 | 0.982 | < 6.30 | 0.955 | < 5.30 | 0.977 | < 8.10
2 | PE/CA-PJ15 (head and neck, adherent) | 0.984 | < 4.70 | 0.984 | < 6.30 | 0.961 | < 5.30 | 0.986 | < 8.10
3 | PF-382 (T-cell lymphoblastic leukaemia, suspension) | 0.991 | < 4.70 | 0.99 | < 6.30 | 0.986 | < 5.30 | 0.985 | < 8.10
4 | PL4 (pancreas, adherent) | 0.987 | < 4.70 | 0.98 | < 6.30 | 0.987 | < 5.30 | 0.987 | < 8.10
5 | QIMR-WIL (acute myeloid leukaemia, suspension) | 0.978 | < 4.70 | 0.985 | < 6.30 | 0.985 | < 5.30 | 0.987 | < 8.10
6 | RC-K8 (B-cell lymphoma, suspension) | 0.992 | < 4.70 | 0.993 | < 6.30 | 0.99 | < 5.30 | 0.993 | < 8.10
7 | RCC10RGB (kidney, adherent) | 0.95 | < 4.70 | 0.963 | < 6.30 | 0.955 | < 5.30 | 0.895 | < 8.10
8 | RCM-1 (large intestine, adherent) | 0.978 | < 4.70 | 0.983 | < 6.30 | 0.982 | < 5.30 | 0.98 | < 8.10
9 | REH (B-cell leukaemia, suspension) | 0.981 | < 4.70 | 0.984 | < 6.30 | 0.939 | < 5.30 | 0.987 | < 8.10
10 | RERF-LC-KJ (lung adenocarcinoma, adherent) | 0.987 | < 4.70 | 0.976 | < 6.30 | 0.987 | < 5.30 | 0.969 | < 8.10
11 | RERF-LC-MS (lung adenocarcinoma, adherent) | 0.981 | < 4.70 | 0.981 | < 6.30 | 0.986 | < 5.30 | 0.809 | 8.36
12 | RERF-LC-Sq1 (lung squamous cell carcinoma, adherent) | 0.978 | < 4.70 | 0.975 | < 6.30 | 0.922 | < 5.30 | 0.979 | < 8.10
13 | RF-48 (stomach, adherent) | 0.981 | < 4.70 | 0.97 | < 6.30 | 0.972 | < 5.30 | 0.984 | < 8.10
14 | RH-1 (rhabdomyosarcoma, adherent) | 0.992 | < 4.70 | 0.979 | < 6.30 | 0.992 | < 5.30 | 0.99 | < 8.10
15 | RH-41 (rhabdomyosarcoma, adherent) | 0.986 | < 4.70 | 0.991 | < 6.30 | 0.984 | < 5.30 | 0.99 | < 8.10
16 | RKN (ovary, adherent) | 0.977 | < 4.70 | 0.98 | < 6.30 | 0.985 | < 5.30 | 0.957 | < 8.10
17 | RMG-I (ovary, adherent) | 0.978 | < 4.70 | 0.981 | < 6.30 | 0.976 | < 5.30 | 0.961 | < 8.10
18 | RO82-W-1 (thyroid, adherent) | 0.98 | < 4.70 | 0.981 | < 6.30 | 0.981 | < 5.30 | 0.977 | < 8.10
19 | ROS-50 (B-cell leukaemia, suspension) | 0.974 | < 4.70 | 0.982 | < 6.30 | 0.976 | < 5.30 | 0.98 | < 8.10
20 | RPMI-2650 (head and neck, adherent) | 0.98 | < 4.70 | 0.983 | < 6.30 | 0.984 | < 5.30 | 0.983 | < 8.10

Row | Cell Line | AUC [1] | pIC50 [1] | AUC [2] | pIC50 [2] | AUC [3] | pIC50 [3] | AUC [4] | pIC50 [4]
21 | RPMI-8402 (T-cell lymphoblastic leukaemia, suspension) | 0.991 | < 4.70 | 0.98 | < 6.30 | 0.99 | < 5.30 | 0.99 | < 8.10
22 | RT4 (bladder, adherent) | 0.979 | < 4.70 | 0.986 | < 6.30 | 0.985 | < 5.30 | 0.987 | < 8.10
23 | RVH-421 (melanoma, adherent) | 0.969 | < 4.70 | 0.971 | < 6.30 | 0.978 | < 5.30 | 0.961 | < 8.10
24 | RXF393 (kidney, adherent) | 0.944 | < 4.70 | 0.937 | < 6.30 | 0.938 | < 5.30 | 0.939 | < 8.10
25 | Raji (Burkitt lymphoma, suspension) | 0.989 | < 4.70 | 0.989 | < 6.30 | 0.99 | < 5.30 | 0.99 | < 8.10
26 | Ramos-2G6-4C10 (Burkitt lymphoma, suspension) | 0.974 | < 4.70 | 0.984 | < 6.30 | 0.9 | 5.32 | 0.983 | < 8.10
27 | SAS (head and neck, adherent) | 0.979 | < 4.70 | 0.978 | < 6.30 | 0.964 | < 5.30 | 0.979 | < 8.10
28 | SAT (head and neck, adherent) | 0.968 | < 4.70 | 0.948 | < 6.30 | 0.892 | < 5.30 | 0.968 | < 8.10
29 | SBC-1 (small cell lung carcinoma, suspension) | 0.958 | < 4.70 | 0.987 | < 6.30 | 0.987 | < 5.30 | 0.989 | < 8.10
30 | SBC-3 (small cell lung carcinoma, adherent) | 0.988 | < 4.70 | 0.988 | < 6.30 | 0.989 | < 5.30 | 0.886 | 8.13
31 | SBC-5 (small cell lung carcinoma, adherent) | 0.991 | < 4.70 | 0.993 | < 6.30 | 0.993 | < 5.30 | 0.911 | 8.11
32 | SCC-4 (head and neck, adherent) | 0.979 | < 4.70 | 0.982 | < 6.30 | 0.959 | < 5.30 | 0.984 | < 8.10
33 | SCC-9 (head and neck, adherent) | 0.959 | < 4.70 | 0.979 | < 6.30 | 0.981 | < 5.30 | 0.964 | < 8.10
34 | SCC-25 (head and neck, adherent) | 0.974 | < 4.70 | 0.982 | < 6.30 | 0.984 | < 5.30 | 0.984 | < 8.10
35 | SCH (stomach, adherent) | 0.987 | < 4.70 | 0.983 | < 6.30 | 0.988 | < 5.30 | 0.973 | < 8.10
36 | SF268 (glioma, adherent) | 0.971 | < 4.70 | 0.982 | < 6.30 | 0.985 | < 5.30 | 0.982 | < 8.10
37 | SF295 (glioma, adherent) | 0.984 | < 4.70 | 0.97 | < 6.30 | 0.973 | < 5.30 | 0.964 | < 8.10
38 | SH-4 (melanoma, adherent) | 0.972 | < 4.70 | 0.96 | < 6.30 | 0.968 | < 5.30 | 0.951 | < 8.10
39 | SHP-77 (small cell lung carcinoma, semi-adherent) | 0.967 | < 4.70 | 0.983 | < 6.30 | 0.992 | < 5.30 | 0.991 | < 8.10
40 | SIMA (neuroblastoma, adherent) | 0.985 | < 4.70 | 0.983 | < 6.30 | 0.985 | < 5.30 | 0.981 | < 8.10

Row | Cell Line | AUC [1] | pIC50 [1] | AUC [2] | pIC50 [2] | AUC [3] | pIC50 [3] | AUC [4] | pIC50 [4]
41 | SISO (cervix, adherent) | 0.988 | < 4.70 | 0.987 | < 6.30 | 0.988 | < 5.30 | 0.987 | < 8.10
42 | SJRH30 (rhabdomyosarcoma, adherent) | 0.986 | < 4.70 | 0.981 | < 6.30 | 0.985 | < 5.30 | 0.966 | < 8.10
43 | SK-HEP-1 (liver, adherent) | 0.988 | < 4.70 | 0.988 | < 6.30 | 0.989 | < 5.30 | 0.972 | < 8.10
44 | SK-LMS-1 (soft tissue, adherent) | 0.987 | < 4.70 | 0.986 | < 6.30 | 0.974 | < 5.30 | 0.982 | < 8.10
45 | SK-MEL-1 (melanoma, suspension) | 0.993 | < 4.70 | 0.993 | < 6.30 | 0.993 | < 5.30 | 0.99 | < 8.10
46 | SK-MEL-3 (melanoma, adherent) | 0.981 | < 4.70 | 0.962 | < 6.30 | 0.984 | < 5.30 | 0.983 | < 8.10
47 | SK-MEL-24 (melanoma, adherent) | 0.982 | < 4.70 | 0.981 | < 6.30 | 0.98 | < 5.30 | 0.977 | < 8.10
48 | SK-MEL-30 (melanoma, adherent) | 0.985 | < 4.70 | 0.984 | < 6.30 | 0.986 | < 5.30 | 0.947 | < 8.10
49 | SK-MES-1 (lung squamous cell carcinoma, adherent) | 0.977 | < 4.70 | 0.983 | < 6.30 | 0.981 | < 5.30 | 0.945 | < 8.10
50 | SK-MM-2 (myeloma, suspension) | 0.981 | < 4.70 | 0.981 | < 6.30 | 0.987 | < 5.30 | 0.986 | < 8.10
51 | SK-N-AS (neuroblastoma, adherent) | 0.976 | < 4.70 | 0.982 | < 6.30 | 0.984 | < 5.30 | 0.94 | < 8.10
52 | SK-N-SH (neuroblastoma, adherent) | 0.973 | < 4.70 | 0.985 | < 6.30 | 0.967 | < 5.30 | 0.918 | < 8.10
53 | SK-OV-3 (ovary, adherent) | 0.974 | < 4.70 | 0.979 | < 6.30 | 0.981 | < 5.30 | 0.967 | < 8.10
54 | SK-PN-DW (Ewing sarcoma, adherent) | 0.98 | < 4.70 | 0.984 | < 6.30 | 0.919 | < 5.30 | 0.986 | < 8.10
55 | SK-UT-1 (soft tissue, adherent) | 0.983 | < 4.70 | 0.988 | < 6.30 | 0.98 | < 5.30 | 0.989 | < 8.10
56 | SKG-IIIa (cervix, adherent) | 0.98 | < 4.70 | 0.981 | < 6.30 | 0.983 | < 5.30 | 0.908 | < 8.10
57 | SKN (uterus, adherent) | 0.925 | < 4.70 | 0.979 | < 6.30 | 0.975 | < 5.30 | 0.981 | < 8.10
58 | SKN-3 (head and neck, adherent) | 0.982 | < 4.70 | 0.979 | < 6.30 | 0.977 | < 5.30 | 0.924 | < 8.10
59 | SLVL (B-cell lymphoma, suspension) | 0.975 | < 4.70 | 0.984 | < 6.30 | 0.98 | < 5.30 | 0.986 | < 8.10

pIC50: −log10 of the molar value. By IC50 is meant the dose at which the fit gives 50% viability; fits outside the tested doses are given as limits. For AUC the same curve is integrated over the 256-fold range of doses and scaled to a fraction: 1 means no effect, lower means more sensitive. An inferred top dose comes from the curve model; the source does not state it.
